# Laboratory results: PubChem BioAssay AID360 (National Center for Advancing Translational Sciences (NCATS), 2006)
# Hit rate of the full screen: of about 48,000 compounds, about 550 (1.1%) were called active. Another 4% or so got no clear call; they are omitted. Rule as the data show it: active = potency below about 15 µM; inconclusive = mostly about 16 µM to 33 µM; inactive = weaker than that. Some of the results follow.
# Biological target: Lysosomal acid glucosylceramidase (Homo sapiens) (UniProt P04062)
# Test: Glucocerebrosidase;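 also: the screen sought inhibitors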
# Conditions: purified enzyme, resorufin glucoside fluorescence (screen aimed at inhibitors), 20 min
# In short: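 Compounds titrated against 0.2 nM normal enzyme, 30 uM resorufin beta-D-glucopyranoside substrate, citrate/phosphate buffer with taurocholate and tween-20, pH 5.9. Reaction ran 20 min at room temperature; fluorescence (Ex 548/Em 600) gave AC50.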
# Potency is read from the fitted curve at half-maximal effect.
# Sequence of UniProt P04062 (P04062 whole entry, looked up): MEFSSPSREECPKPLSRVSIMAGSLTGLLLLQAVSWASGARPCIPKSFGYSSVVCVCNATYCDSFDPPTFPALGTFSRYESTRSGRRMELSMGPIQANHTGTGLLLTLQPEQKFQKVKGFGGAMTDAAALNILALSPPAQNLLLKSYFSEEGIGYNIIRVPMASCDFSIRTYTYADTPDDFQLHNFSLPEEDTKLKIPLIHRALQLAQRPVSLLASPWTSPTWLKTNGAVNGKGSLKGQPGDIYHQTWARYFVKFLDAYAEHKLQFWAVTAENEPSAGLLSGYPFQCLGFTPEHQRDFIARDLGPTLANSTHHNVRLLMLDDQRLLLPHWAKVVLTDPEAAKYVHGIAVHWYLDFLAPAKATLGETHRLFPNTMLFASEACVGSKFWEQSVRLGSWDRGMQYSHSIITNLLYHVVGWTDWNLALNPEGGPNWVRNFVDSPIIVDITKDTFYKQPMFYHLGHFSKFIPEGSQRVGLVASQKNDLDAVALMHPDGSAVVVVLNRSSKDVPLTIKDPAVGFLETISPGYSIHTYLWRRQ
row,SMILES,Potency
1,Cn1c(SC/C=C/c2ccccc2)nnc1-c1cccs1,inactive: > 76.9 µM
2,CC1Oc2ccccc2N(CC(=O)NCc2cccs2)C1=O (stereo not drawn),inactive: > 76.9 µM
3,O=C(OCC(=O)N1CCCC1)c1cccs1,inactive: > 76.9 µM
4,O=C(NC1CCCCC1)N1CCN(Cc2nc3ccccc3c(=O)[nH]2)CC1,inactive: > 76.9 µM
5,COCc1nnc(NS(=O)(=O)c2ccc(Br)cc2)s1,inactive: > 76.9 µM
6,Cc1ccc(CN2CCSc3ccc(C(=O)N4CCN(c5ncccn5)CC4)cc32)cc1,inactive: > 76.9 µM
7,O=C1N(c2ccccc2)C2CS(=O)(=O)CC2N1c1ccc(Br)cc1 (stereo not drawn),inactive: > 76.9 µM
8,O=C(Cc1c(O)c2ccccc2[nH]c1=O)NCc1ccccc1F,inactive: > 76.9 µM
9,COC(=O)Cc1cc(=O)n(-c2nc3ccccc3[nH]2)[nH]1,inactive: > 76.9 µM
10,O=C(CC1Nc2ccccc2NC1=O)NCc1cccnc1 (stereo not drawn),inactive: > 76.9 µM
11,O=c1c2ccccc2c(C=Nc2ccc(Cl)cn2)c(O)n1-c1cc(Cl)ccc1N1CCOCC1,inactive: > 76.9 µM
12,COc1ccc(CCn2c(=O)[nH]c3cc(C(=O)NCCCN4CCOCC4)ccc3c2=O)cc1OC,inactive: > 76.9 µM
13,COC(=O)CN1C(=O)C(O)(CC(=O)c2ccc(C)cc2)c2ccccc21 (stereo not drawn),inactive: > 76.9 µM
14,O=C(Cn1c(=S)nc2ccccn21)N1CCc2ccccc2C1,inactive: > 76.9 µM
15,CSc1ccccc1C(=O)Nc1cccc(C(C)O)c1 (stereo not drawn),inactive: > 76.9 µM
16,O=C(O)CCNS(=O)(=O)c1ccc2c(c1)Cc1ccccc1-2,inactive: > 76.9 µM
17,CCC(=O)NCCC(c1ccco1)c1ccccc1OC (stereo not drawn),inactive: > 76.9 µM
18,O=C(CCS(=O)(=O)c1cccc2nonc12)NCCc1ccccc1,inactive: > 76.9 µM
19,CCOc1ccc(NC(=O)CSc2nnc(-c3ccccc3Cl)n2Cc2ccco2)cc1,inactive: > 76.9 µM
20,Cc1nc2c(sc3nc4c(cc32)COC(C)(C)C4)c(=O)n1CC(=O)NCc1ccco1,inactive: > 76.9 µM

row,SMILES,Potency
1,CN(c1ccc(C(=O)NC2CC2)cc1)S(=O)(=O)c1ccccc1,inactive: > 76.9 µM
2,CCOc1ccccc1NC1c2ccccc2C(=O)N1c1cccnc1 (stereo not drawn),inactive: > 76.9 µM
3,Cc1noc(/C=C/N(C)C)c1S(=O)(=O)N(C)CC(=O)N1CCc2ccccc21,inactive: > 76.9 µM
4,Cc1cnc(C(=O)OCC(=O)NC2CCCCC2)cn1,inactive: > 76.9 µM
5,O=C(Nc1ccc(Cn2nnc3ccccc32)cc1)c1ccco1,inactive: > 76.9 µM
6,CCOC(=O)c1sc(=S)n(C)c1N,inactive: > 76.9 µM
7,Cc1ccc(SCc2nc(-c3ccccc3)no2)cc1,inactive: > 76.9 µM
8,CCOc1ccc(OCC)c(S(=O)(=O)N2CCCCC2C)c1 (stereo not drawn),inactive: > 76.9 µM
9,Cc1onc(-c2ccccc2Cl)c1C(=O)NCc1ccc(N2CCCC2=O)cc1,inactive: > 76.9 µM
10,CC(=O)Nc1ccc2oc(-c3ccccc3Br)nc2c1,inactive: > 76.9 µM
11,CCCNc1ncccc1C(N)=O,inactive: > 76.9 µM
12,O=C(c1ccccc1F)N1CCN(S(=O)(=O)c2ccc(S(=O)(=O)N3CCCCC3)cc2)CC1,inactive: > 76.9 µM
13,O=C(OCC1OC2C(Oc3nc(=O)ccn32)C1O)c1ccccc1 (stereo not drawn),inactive: > 76.9 µM
14,CCCOc1ccc2oc(=O)c3c(c2c1)CCCN3C(=O)CN1CCN(c2ncccn2)CC1,inactive: > 76.9 µM
15,COc1ccc(N2CCN(Cc3cc(=O)oc4ccc5ccccc5c34)CC2)cc1,active: 5.96 µM
16,Cc1csc(C(C#N)C(=O)c2cc3ccccc3o2)n1 (stereo not drawn),inactive: > 76.9 µM
17,O=C(c1ccccc1F)N1CCN(c2ccccc2F)CC1,inactive: > 76.9 µM
18,CCCCn1c(C(C)NC(=O)COC)nc2ccccc21 (stereo not drawn),inactive: > 76.9 µM
19,CCn1c(SCc2nc(CC(=O)Nc3ccccc3OC)no2)nnc1-c1cccs1,inactive: > 76.9 µM
20,Cc1ccc2c(c1)N(CC(=O)N1CCN(c3nc4ccccc4s3)CC1)C(=O)C(C)O2 (stereo not drawn),inactive: > 76.9 µM

row,SMILES,Potency
1,CCCS(=O)(=O)N1CCCC(C(=O)NCCc2ccc(Cl)cc2)C1 (stereo not drawn),inactive: > 76.9 µM
2,Nc1ccc[n+](Cc2ccccn2)c1,inactive: > 76.9 µM
3,CCC(C)n1nccc1NC(=O)C(C)OC(=O)c1cc2ccccc2[nH]1 (stereo not drawn),inactive: > 76.9 µM
4,c1coc(-c2nnc(SCc3nc4ccccc4[nH]3)o2)c1,inactive: > 76.9 µM
5,O=S(=O)(c1ccc(Cl)c(C(F)(F)F)c1)N1CCN(CC(O)COCC2CCCO2)CC1 (stereo not drawn),inactive: > 76.9 µM
6,COC(C)(C)[C@]12CC(O)(C(C)C)ON1[C@H]1CCCCC1N2O (stereo partly drawn),inactive: > 76.9 µM
7,O=C(c1ccccc1)c1nc[nH]c1C(=O)Nc1ccccc1,inactive: > 76.9 µM
8,CN(C)S(=O)(=O)c1ccc(C(=O)Oc2ccccc2)cc1,inactive: > 76.9 µM
9,Cc1c(C(=O)O)[nH]c2c1C(=O)CC(c1ccccc1)C2 (stereo not drawn),inactive: > 76.9 µM
10,O=c1[nH]c2ccsc2c(=O)n1-c1ccc(F)cc1,inactive: > 76.9 µM
11,Cn1c(NCCCN2CCOCC2)nc2c1c(=O)n(Cc1ccc(Cl)cc1Cl)c(=O)n2C,inactive: > 76.9 µM
12,CCOC(=O)N1CCN(C(=O)COc2ccc(S(=O)(=O)Nc3ccc(OCC)cc3)cc2)CC1,inactive: > 76.9 µM
13,O=C(c1ccco1)N1CCN(C(=O)C2(S(=O)(=O)c3ccc(Cl)cc3)CC2)CC1,inactive: > 76.9 µM
14,COC(=O)c1ccccc1NC(=O)COC(C)=O,inactive: > 76.9 µM
15,CC(=O)Nc1cccc(Oc2ccc3c(c2)C(=O)N(CCC(=O)O)C3=O)c1,inactive: > 76.9 µM
16,COc1ccc(N2CCN(CC(=O)Nc3cc(C)on3)CC2)cc1,inactive: > 76.9 µM
17,O=C(NCCCN1CCCC1=O)c1ccc(CNS(=O)(=O)c2ccc(F)cc2)cc1,inactive: > 76.9 µM
18,COC(=O)c1ccccc1NC(=O)CCNC(=O)Cn1cnc2ccccc2c1=O,inactive: > 76.9 µM
